Consider 1 compound from patent publication US20100285145A1, “GPR 119 MODULATORS” (PFIZER INC, priority 2009, published 2010).

The assay has as its target T1, human GPR119 (Homo sapiens, UniProt Q8TDV5).
T1 sequence (Q8TDV5 1-335): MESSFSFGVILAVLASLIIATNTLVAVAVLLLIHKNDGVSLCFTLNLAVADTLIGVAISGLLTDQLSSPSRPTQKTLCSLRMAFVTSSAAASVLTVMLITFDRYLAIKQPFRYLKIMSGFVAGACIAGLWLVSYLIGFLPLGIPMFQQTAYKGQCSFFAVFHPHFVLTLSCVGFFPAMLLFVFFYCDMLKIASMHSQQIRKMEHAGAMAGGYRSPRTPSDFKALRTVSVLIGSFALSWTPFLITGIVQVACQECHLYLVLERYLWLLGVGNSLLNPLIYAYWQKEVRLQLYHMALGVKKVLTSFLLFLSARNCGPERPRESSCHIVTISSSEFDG
The experiment in a line: cAMP HTRF functional assay (hGPR119 HEK-CRE beta-lactamase cells). It counts as cell-based. More on the design: host or cells: HEK293-CRE beta-lactamase. Particulars: percent of maximal activity relative to standard GPR119 agonist at 10 micromolar. On the procedure:
GPR119 agonist activity was also determined with a cell-based assay utilizing an HTRF (Homogeneous Time-Resolved Fluorescence) cAMP detection kit (cAMP dynamic 2 Assay Kit; Cis Bio cat #62AM4PEC) that measures cAMP levels in the cell. The method is a competitive immunoassay between native cAMP produced by the cells and the cAMP labeled with the dye d2. The tracer binding is visualized by a Mab anti-cAMP labeled with Cryptate. The specific signal (i.e. energy transfer) is inversely proportional to the concentration of cAMP in either standard or sample. […]
Varying concentrations of each compound to be tested were diluted in assay buffer containing 3-isobutyl-1-methylxanthin (IBMX; Sigma cat #15879) and added to the assay plate wells in a volume of 2 microL (final IBMX concentration was 400 microM and final DMSO concentration was 0.58%). […] The plates were then incubated at room temperature and after 60 minutes, changes in the HTRF signal were read with an Envision 2104 multilabel plate reader using excitation of 330 nm and emissions of 615 and 665 nm. Raw data were converted to nM cAMP by interpolation from a cAMP standard curve (as described in the manufacturer's assay protocol) and EC50 determinations were made from an agonist-response curves analyzed with a curve fitting program using a 4-parameter logistic dose response equation.
On the technique in general: TR-FRET usually uses a lanthanide donor and a delayed reading to cut background.

Molecules are shown by their SMILES. The source holds more than one record for some entries. They are shown here; other results are not. There may be further records. The records of an entry appear to be repeats (runs, samples, wells or individuals); a mean can stand among them. Counts like (3×) give the number of equal values in this list.

Consider `CC(C)OC(=O)N1C[C@H]2COC[C@@H](C1)[C@H]2Oc1ncnc(N2CCc3cc(S(C)(=O)=O)ccc32)c1C#N` [Example 5], for which the “Intrinsic Activity (Human cAMP)” value is 103, 98.6, 100 (2×), 82, 98.1% [lines of one column].
